According to the antibiotic and cytotoxicity screens of Wong et al. (2023):
Some of the results follow.

Key:
HSkMC = human skeletal muscle cells; experiment: cytotoxicity call (relative viability < 0.9); conditions: 10 µM
HepG2 = experiment: cytotoxicity call (relative viability < 0.9); conditions: 10 µM
S. aureus RN4220 = experiment: growth inhibition call (relative growth <= 0.2); conditions: 50 µM

SMILES | cytotoxicity call (HSkMC) | cytotoxicity call (HepG2) | growth inhibition call (S. aureus RN4220)
NCCc1cnc[nH]1 | inactive | inactive | inactive
C[C@H](CO)N1C[C@H](C)[C@@H](CN(C)S(=O)(=O)c2cccs2)OCCCC[C@H](C)Oc2ccc(NC(=O)C3CCCCC3)cc2C1=O | inactive | inactive | inactive
C[C@@H]1CN([C@@H](C)CO)C(=O)c2cccc(NC(=O)c3ccncc3)c2O[C@H]1CN(C)Cc1ccc(C(=O)O)cc1 | inactive | inactive | inactive
COc1ccc(S(=O)(=O)Nc2ccc3c(c2)CC(=O)N([C@H](C)CO)C[C@H](C)[C@H](CN(C)Cc2ccc(C(=O)O)cc2)O3)cc1 | inactive | inactive | inactive
COc1ccc(CN(C)C[C@@H]2OCCCC[C@H](C)Oc3ccc(NC(=O)NC(C)C)cc3C(=O)N([C@@H](C)CO)C[C@H]2C)cc1 | inactive | inactive | inactive
CC(C)CC#Cc1ccc2c(c1)O[C@@H](CN(C)C(=O)c1ccccn1)[C@@H](C)CN([C@@H](C)CO)S2(=O)=O | inactive | inactive | inactive
COC(=O)[C@@H](NC(=O)c1cccc(NC=O)c1O)[C@@H](C)O | inactive | inactive | inactive
CN1CCN(C(=O)C[C@@H]2C=C[C@H](NC(=O)c3ccc4c(c3)OCO4)[C@@H](CO)O2)CC1 | inactive | inactive | inactive
CO[C@H](CN(C)C(=O)c1ccccc1F)[C@H](C)CN([C@H](C)CO)S(=O)(=O)c1ccc(Cl)cc1 | inactive | inactive | inactive
CC(C)(C)C(=O)Nc1ccccc1F | inactive | inactive | inactive
COc1ccc2c3c(n(c2c1)C)[C@@H](CO)N(C[C@]13CCN(CC1)C(=O)C1CC1)C(=O)CN1CCOCC1 | inactive | inactive | inactive
COc1ccc(S(=O)(=O)Nc2ccc3c(c2)CC(=O)N([C@@H](C)CO)C[C@@H](C)[C@H](CN(C)S(=O)(=O)c2c(C)noc2C)O3)cc1 | inactive | inactive | inactive
COc1ccc(C#Cc2ccc3c(c2)O[C@H](CN(C)C(=O)c2ccccn2)[C@@H](C)CN([C@H](C)CO)S3(=O)=O)cc1 | inactive | inactive | inactive
C[C@H]1CN([C@@H](C)CO)C(=O)Cc2cc(NC(=O)Nc3cccc4ccccc34)ccc2O[C@H]1CN(C)S(=O)(=O)c1ccc(Cl)cc1 | inactive | active | inactive
CCS(=O)(=O)NCC[C@H]1CC[C@H](NC(=O)C2CC2)[C@@H](CO)O1 | inactive | inactive | inactive
C[C@H](CO)N1C[C@H](C)[C@H](CN(C)C(=O)C2CCOCC2)Oc2cc(-c3ccc(C(=O)N(C)C)cc3)ccc2S1(=O)=O | inactive | inactive | inactive
C=CCOC(=O)[C@@H]1[C@H]2C(=O)O[C@H](c3ccccc3)[C@H](c3ccccc3)N2[C@H](c2ccc(OCCOC(=O)[C@@H]3C[C@@H]4C(=O)N[C@@H](CCCCN(C)C)C(=O)N4[C@@H]3c3ccc(O)cc3)cc2)[C@@]12C(=O)Nc1ccc(I)cc12 | inactive | inactive | inactive
COc1ccc(NC(=O)Nc2ccc3c(c2)C(=O)N([C@@H](C)CO)C[C@@H](C)[C@H](CN(C)S(=O)(=O)c2ccc(OC)cc2)OCCCC[C@H](C)O3)cc1 | inactive | inactive | inactive
O=C(NCCN1CCOCC1)[C@@]1(CCS(=O)(=O)c2ccccc2)N=C(c2ccc(OCCCO)cc2)O[C@H]1c1ccccc1 | inactive | inactive | inactive
COc1ccc(CN(C)C[C@H]2OCCCC[C@H](C)Oc3ccc(NC(=O)c4ccncc4)cc3C(=O)N([C@@H](C)CO)C[C@@H]2C)cc1 | inactive | inactive | inactive
O=C(Nc1cccc2cccnc12)[C@@H]1[C@H](c2ccc(Br)cc2)CN1C(=O)OCc1ccc([N+](=O)[O-])cc1 | inactive | inactive | inactive
C=CCOc1ccc(CNn2nnnc2N)cc1 | inactive | inactive | inactive
C[C@H]1CN([C@@H](C)CO)C(=O)Cc2cc(NC(=O)CCC(F)(F)F)ccc2O[C@@H]1CN(C)C(=O)Nc1cccc2ccccc12 | inactive | inactive | inactive
CN1CCN(C(=O)C[C@@H]2CC[C@@H]3[C@H](COC[C@@H](O)CN3Cc3ccc4c(c3)OCO4)O2)CC1 | inactive | inactive | inactive
C[C@H](CO)N1C[C@H](C)[C@@H](CN(C)Cc2ccc(-c3ccccc3)cc2)Oc2ccc(NC(=O)c3ccncc3)cc2C1=O | inactive | inactive | inactive
C[C@H](CO)N1C[C@H](C)[C@@H](CN(C)C(=O)c2ccc3c(c2)OCO3)Oc2cc(-c3ccncc3)ccc2S1(=O)=O | inactive | inactive | inactive
COc1ccc(NC(=O)Nc2ccc3c(c2)C(=O)N([C@H](C)CO)C[C@H](C)[C@@H](CN(C)S(=O)(=O)c2ccccc2)OCCCC[C@H](C)O3)cc1 | inactive | inactive | inactive
C[C@H](CO)N1C[C@H](C)[C@@H](CN(C)S(=O)(=O)c2cn(C)cn2)Oc2c(NC(=O)C3CC3)cccc2C1=O | inactive | inactive | inactive

SMILES | cytotoxicity call (HSkMC) | cytotoxicity call (HepG2) | growth inhibition call (S. aureus RN4220)
O=C(C[C@H]1CC[C@@H]2[C@H](COC[C@H](O)CN2Cc2cc(F)ccc2F)O1)N[C@@H]1CCN(Cc2ccccc2)C1 | inactive | inactive | inactive
Cc1ccc(S(=O)(=O)N(C)C[C@@H]2Oc3c(NC(=O)c4ccncc4)cccc3C(=O)N([C@@H](C)CO)C[C@@H]2C)cc1 | inactive | inactive | inactive
Cn1cnc(CCNC(=O)C[C@H]2CC[C@@H]3[C@H](COC[C@H](O)CN3C(=O)Nc3ccc(Cl)cc3)O2)c1 | inactive | active | inactive
CNC[C@@H]1OCCCC[C@H](C)Oc2ccc(NC(=O)Nc3ccc(C(F)(F)F)cc3)cc2C(=O)N([C@@H](C)CO)C[C@H]1C | inactive | inactive | inactive
C[C@H]1CN([C@@H](C)CO)C(=O)Cc2cc(NS(C)(=O)=O)ccc2O[C@@H]1CN(C)S(=O)(=O)c1cn(C)cn1 | inactive | inactive | inactive
Cc1noc(C)c1S(=O)(=O)Nc1ccc2c(c1)C(=O)N([C@@H](C)CO)C[C@H](C)[C@H](CN(C)C)OCCCC[C@H](C)O2 | inactive | inactive | inactive
Cc1noc(C)c1S(=O)(=O)Nc1cccc2c1O[C@@H](CN(C)S(C)(=O)=O)[C@@H](C)CN([C@@H](C)CO)C2=O | inactive | active | inactive
CN(C)CCCNC(=O)C[C@@H]1CC[C@H](NS(=O)(=O)c2ccccc2)[C@@H](CO)O1 | inactive | inactive | inactive
COc1c(C)cnc2c1c(=O)n(CC#N)c(=O)n2C | inactive | inactive | inactive
C[C@@H]1CN([C@H](C)CO)C(=O)c2c(c3ccccc3n2C)-c2ccccc2CO[C@H]1CN(C)C(=O)Nc1cccc(F)c1 | inactive | inactive | inactive
CSc1nc(=O)c(CCO)c(C)[nH]1 | inactive | inactive | inactive
COc1ccc(COC[C@@]23Oc4ccccc4[C@@H](NC(=S)N2C)[C@@H]3CO[Si](C)(C)C(C)(C)C)cc1 | inactive | active | inactive
COc1ccc(S(=O)(=O)N(C)C[C@H]2OCCCC[C@H](C)Oc3ccc(NC(=O)C4CCCCC4)cc3C(=O)N([C@H](C)CO)C[C@H]2C)cc1 | inactive | inactive | inactive
Cc1noc(C)c1NC(=O)Nc1ccc2c(c1)CC(=O)N([C@H](C)CO)C[C@H](C)[C@H](CN(C)S(=O)(=O)c1cccs1)O2 | inactive | inactive | inactive
C[C@H]1CCCCO[C@@H](CN(C)Cc2ccc(C(=O)O)cc2)[C@@H](C)CN([C@@H](C)CO)C(=O)c2cc(NC(=O)Nc3ccc(C(F)(F)F)cc3)ccc2O1 | inactive | inactive | inactive
C[C@H](CO)N1C[C@H](C)[C@H](CN(C)S(=O)(=O)c2ccc(-c3ccccc3)cc2)OCc2cnnn2CCCC1=O | inactive | inactive | inactive
COc1ccccc1NC(=O)N(C)C[C@H]1OCc2ccccc2-c2c(n(C)c3ccccc23)C(=O)N([C@@H](C)CO)C[C@H]1C | inactive | inactive | inactive
COc1ccc(-c2coc3cc(OC(C)=O)cc(OC(C)=O)c3c2=O)cc1 | inactive | inactive | inactive
CO[C@@H]1CN(C)C(=O)c2ccc(NS(=O)(=O)c3ccccc3)cc2OC[C@@H](C)N(C(=O)NC(C)C)C[C@@H]1C | inactive | inactive | inactive
Cc1ccc(S(=O)(=O)Nc2cccc3c2O[C@@H](CN(C)S(=O)(=O)c2cccs2)[C@@H](C)CN([C@@H](C)CO)C3=O)cc1 | inactive | inactive | inactive
C[C@@H]1CN([C@@H](C)CO)C(=O)c2cc(C#CC(C)(C)O)cnc2O[C@@H]1CN(C)C(=O)CN(C)C | inactive | inactive | inactive
C[C@@H]1CCCCO[C@H](CN(C)S(=O)(=O)c2ccc(F)cc2)[C@H](C)CN([C@H](C)CO)C(=O)c2cc(NC(=O)CCC(F)(F)F)ccc2O1 | inactive | inactive | inactive
Cc1ccc(S(=O)(=O)N(C)C[C@@H]2Oc3c(NS(=O)(=O)c4cccs4)cccc3C(=O)N([C@H](C)CO)C[C@H]2C)cc1 | inactive | inactive | inactive
C[C@@H]1CN([C@@H](C)CO)C(=O)Cc2cc(NC(=O)C3CC3)ccc2O[C@@H]1CN(C)S(=O)(=O)c1ccc(F)cc1 | inactive | inactive | inactive
C[C@H]1CN([C@@H](C)CO)C(=O)CCCn2nncc2CO[C@@H]1CN(C)S(=O)(=O)c1ccc2ccccc2c1 | inactive | inactive | inactive
Cc1noc(C)c1NC(=O)Nc1cccc2c1O[C@@H](CN(C)C(=O)Nc1cccc3ccccc13)[C@H](C)CN([C@@H](C)CO)C2=O | inactive | inactive | inactive
C[C@@H]1CCCCO[C@H](CN(C)S(=O)(=O)c2cccs2)[C@H](C)CN([C@@H](C)CO)C(=O)c2cc(NC(=O)Nc3ccccc3)ccc2O1 | inactive | inactive | inactive
